The results in this text go back to PubChem BioAssay AID463173 (ICCB-Longwood Screening Facility, Harvard Medical School, 2010).

Screen size: about 52,000 compounds; about 1,700 (3.3%) were called active. Rule as the data show it: active = survival mostly below about 52% (no sharp cut-off); inactive = mostly above about 56%. The list shows a part of the results.

This assay relates to Wild type. The assay is described as follows: S. aureus survival, RN4220 and DeltatarO strains – OD600, teichoic acid synthesis inhibitors, primary screen (AID 463173). The following applies: S. aureus RN4220 wild type/DeltatarO growth, OD600, 18 h, stronger effect = lower value, screened at 18.75 µg/mL (by protocol).
For the compound `CCc1ccc(NC(=O)c2cc3c([nH]c2=O)CC(C)(C)CC3=O)cc1`, the survival is inactive: 66%.

Regarding `COc1ccc(CNC(=O)c2ccc(-c3nc(CSc4ccccc4)c(C)o3)cc2)c(OC)c1`, the survival was inactive: 100%.

With `CC(=O)c1cccc(NC(=O)c2cc3nc(-c4ccc(Br)cc4)cc(C(F)(F)F)n3n2)c1`, the survival was inactive: 22%.

Turning to `Cc1ccc(-c2nc(C)c(CCNC(=O)C(=O)Nc3ccc4c(c3)OCO4)s2)cc1`, the survival was inactive: 56%.

`COc1ccc(CCN2C(=O)N(c3ccccc3)C(=O)C2CC(=O)Nc2ccccc2)cc1` (configuration not stated): the survival was inactive: 73%.

On to `COc1cc2cc(CN(Cc3ccc4c(c3)OCO4)C(=O)NCc3ccccc3)c(=O)[nH]c2cc1OC`, for which the survival was inactive: 117%.

Regarding `CCOC(=O)C1CCN(CCC(=O)Nc2ccc(OC)cc2)CC1`, the survival was inactive: 71%.

In the case of `CCCN1C(=O)C2(c3ccccc31)c1c(oc3ccc(C)cc3c1=O)C(=O)N2CCOC` (configuration not stated), the survival was inactive: 82%.

With `Cc1nc(N2CCOCC2)c2c(C(=O)N3CCN(c4cccc(C)c4C)CC3)c(C)oc2n1`, the survival is inactive: 148%.

Take `COc1cc(C(=O)N2CC(=O)Nc3ccc(C)cc3C2c2ccc(F)cc2)cc(OC)c1OC` (configuration not stated): the survival is inactive: 147%.

In the case of `COC(=O)c1ccccc1NC(=O)Cn1c(=O)n(CCCC(=O)NCCc2ccc(OC)c(OC)c2)c(=O)c2ccccc21`, the survival is inactive: 87%.

Turning to `O=C1CC(NNc2ccccc2)C(=O)N1c1cccc(Cl)c1` (configuration not stated), the survival was inactive: 63%.

On to `Cc1cc(C)c(NC(=O)CCC(=O)N2Cc3ccccc3Oc3ncccc32)c(C)c1`, for which the survival is inactive: 73%.

On to `CCCC(=O)Oc1ccc2ccc(=O)oc2c1`, for which the survival was inactive: 120%.

Consider `COc1ccc(Nc2cc(C)c3cc(NC(=O)c4cc(OC)cc(OC)c4)ccc3n2)cc1`, for which the survival was inactive: 75%.

For `Cc1ccc(C)c(NC(=O)NCc2ccc3c(c2)CCN3C(=O)c2ccccc2)c1`, the survival was inactive: 66%.

As to `CCSc1nc2ccc(N)cc2s1`, the survival is inactive: 115%.

On to `COc1ccc(S(=O)(=O)NCc2ccc(C(=O)NCc3ccccc3)cc2)cc1`, for which the survival is inactive: 82%.

Take `CCCOc1ccc(C2c3c(oc4ccccc4c3=O)C(=O)N2c2nc(C)c(C(=O)OCC)s2)cc1` (configuration not stated): the survival is inactive: 66%.

As to `CCN1CCC(N(Cc2ccc(F)cc2)C(=O)Nc2cc(Cl)ccc2C(=O)OC)CC1`, the survival was inactive: 80%.

Take `CC(=O)c1ccc(N2CCN(C(=O)c3ccc(Cn4c(=O)[nH]c5ccccc5c4=O)cc3)CC2)cc1`: the survival is inactive: 143%.

In the case of `O=C1C=CC(=O)N1c1ccccc1F`, the survival is inactive: 99%.

Turning to `CC(C)c1ccc(NC(=O)C2(C)Cc3ccccc3C(=O)O2)cc1` (configuration not stated), the survival was inactive: 102%.

For `Cc1ccc2c(c1)-c1c(cnn1CC(=O)N1CCN(c3cc(Cl)ccc3C)CC1)CO2`, the survival was inactive: 68%.

As to `Cc1ccc(N=C2CCCN2Cc2ccccc2)c(C#N)c1`, the survival was inactive: 124%.

`COC(=O)C[N+]1(Cc2ccco2)CCCCC1`: the survival is inactive: 99%.

As for `O=C(c1ccccc1)c1ccc2nc(Nc3cc(Cl)ccc3O)c3nncn3c2c1`, the survival is inactive: 133%.

As to `CC(C)C(NS(=O)(=O)c1cccc2cccnc12)C(=O)Nc1ccc(OC(F)(F)F)cc1` (configuration not stated), the survival was inactive: 100%.

As for `CS(=O)(=O)N(CCc1ccccc1)CC(=O)N1CCOCC1`, the survival was inactive: 102%.

In the case of `COCCNC(=O)CCc1nc2cccnc2n1Cc1ccc(OC)cc1`, the survival is inactive: 136%.

For the compound `COc1ccc(Cl)cc1NC(=O)c1cc2c(s1)-c1ccccc1OC2`, the survival was inactive: 80%.

For the compound `CCc1ccc(OC(C)C(=O)Nc2c(C(=O)c3ccccc3)oc3ccccc23)cc1` (configuration not stated), the survival was active: 13%.

With `Oc1c(Br)cc(Br)cc1-c1nc2ccccc2s1`, the survival is inactive: 133%.

For the compound `CS(=O)(=O)N(CC(=O)NCCSc1ccccc1)c1cc(C(F)(F)F)ccc1Cl`, the survival was inactive: 70%.

For `COc1ccc(OC)c(NC(=O)CSc2cn(CC(=O)N3CCOCC3)c3ccccc23)c1`, the survival was inactive: 94%.

`COc1cccc(C2C(C(=O)Nc3ccccc3)=C(C)Nc3nc(-c4ccccc4)nn32)c1` (configuration not stated): the survival was inactive: 76%.

As to `O=C(c1ccccc1)c1ccccc1NC(=O)c1ccccc1C(=O)O`, the survival is inactive: 89%.

In the case of `Cc1ccc(-c2nc(CS(=O)CC(=O)N3CCN(c4ccccc4)CC3)c(C)o2)cc1` (configuration not stated), the survival was inactive: 88%.

As for `CCCN(CCC)C(=O)C1CCCN(S(=O)(=O)c2ccc3c(c2)oc(=O)n3C)C1` (configuration not stated), the survival is inactive: 82%.

As to `O=C(Nc1ccccc1-c1ccccc1)NC1CCN(CC(=O)N2CCOCC2)CC1`, the survival was inactive: 102%.

Consider `COc1ccc(-c2noc(-c3ccc(NC4CCCC4)c([N+](=O)[O-])c3)n2)cc1`, for which the survival was inactive: 118%.

For `CCN(CC)c1cc(C)c2cc(NC(=O)/C=C/c3ccc(C)cc3)ccc2n1`, the survival was inactive: 68%.

Regarding `CC(=O)c1ccc(N2CCN(C(=O)c3cc4cc5cc(C)ccc5nc4s3)CC2)cc1`, the survival was inactive: 74%.

Regarding `Cc1ccc(C(=O)c2oc3ccccc3c2NC(=O)c2cc(-c3ccccc3)on2)cc1F`, the survival was inactive: 86%.

For `Cc1ccc(C)c(NC(=O)C2CCCN(S(=O)(=O)c3ccc4[nH]c(=O)ccc4c3)C2)c1` (configuration not stated), the survival is inactive: 97%.

With `Cc1noc(Cn2c(=O)c3cc4c(cc3n(CC(=O)Nc3cccc(Cl)c3)c2=O)OCO4)n1`, the survival is inactive: 127%.

Consider `COCCCNc1c2c(nc3ccccc13)CCC2`, for which the survival is inactive: 112%.

With `O=C(Nc1ccc(SC(F)F)cc1)c1cc(-c2ccc3c(c2)OCCO3)on1`, the survival was inactive: 83%.

Turning to `CC(=O)Nc1nonc1-c1nnc(SCC(=O)Nc2ccc(C)cc2C)n1C`, the survival is inactive: 84%.

For `COc1ccc(NC(=O)[C@@H](c2ccccc2)N2Cc3ccccc3C2=O)cc1OC`, the survival was inactive: 76%.

In the case of `CCOc1ccc(CNC(=O)c2c(C)nn(-c3ccc(F)cc3)c2-n2cccc2)cc1`, the survival is inactive: 128%.

Turning to `CC(NC(=O)Cc1ccccc1)c1ccccc1` (configuration not stated), the survival was inactive: 110%.

On to `CC1CCc2c(sc(NC(=O)COc3ccccc3)c2C(=O)Nc2ccccc2Cl)C1` (configuration not stated), for which the survival was inactive: 163%.

For `Cc1ccc(-n2nc(C(=O)NCCN(C)C)c(=O)n(C)c2=O)cc1`, the survival is inactive: 85%.

On to `Cc1ccc(CSCC(=O)N2CCN(c3cc(Cl)ccc3C)CC2)cc1`, for which the survival was inactive: 78%.

For `Cc1ccc(S(=O)(=O)N2CCN(C(=O)CN3CCOCC3)C2C(C)C)cc1` (configuration not stated), the survival was inactive: 105%.

Regarding `Cc1[nH]c2ccccc2c1C(=O)C(=O)NC1CC(=O)N(c2cccc(F)c2)C1` (configuration not stated), the survival was inactive: 92%.
